Values marked as one replicate rest on one cluster of the flow cell; about a third of the high ones do not repeat.
System: ATP
Experiment: switch fluorescence ratio, 500 uM ATP over buffer (Cy3 cluster intensity, sum of 5 cycles each) (fold (ratio)); higher = stronger signal-on switching upon ATP binding; sequences stand for … in TCGTCGGCAGCGTCAGATGTGTATAAGAGACAGTTTTTTTTTTTTTTTTTTTTTTTTT…TC
Settings: aptamer strand: ATP DNA aptamer (quencher-CACCTGGGGGAGTATTGCGGAGGAAGG + anchor), 100 nM annealed; ATP concentration: 500 uM; one replicate
Procedure, shortened: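 Imaging in selection buffer was followed by imaging after 15 min with 500 uM ATP at 22 °C, for Cy3-labelled switching-strand clusters annealed to 100 nM quencher-labelled ATP aptamer on a modified Illumina MiSeq flow-cell. Five of these buffer/ATP cycles ran, separated by NaOH stripping and re-annealing. The fluorescence ratio per cluster is summed target-cycle over summed buffer-cycle Cy3 intensity, averaged per switch-domain sequence; clusters outside 100-1000 RFU were removed.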
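Note: ATP exposure 15 min at 22 °C before imaging.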

Sequence	switch fluorescence ratio
CTAAACCGTA	0.996
TAGGCCTGTT	0.989
TCGTAAGCGG	0.951
TGGCCGTATG	0.989
GTCGTTTACT	0.99
TTTTTTCAA	1.02
TTCAGGGTCT	0.977
AGTGTACAGT	1.08
AGGGAAAATA	1.06
TTAAGGGGT	0.975
CAAATGAACC	1.08
CAAACTTTT	1
GGCCCACGCT	0.996
AGGTCTATGG	0.983
CGAGGCGACA	1.18
CCGCACGGCC	4.46
GGTGATTTT	1.03
TATACTCGCC	1.75
ATTTTACCGC	0.987
AAGTTGGAAC	0.945
ATGTTCAAAA	0.971
CCGGGAGT	0.984
ACTTTTGGA	0.974

Sequence	switch fluorescence ratio
TATGGCTG	0.997
TTGCTTCA	0.959
ATGGTTTGTG	0.987
GTAATGAGGG	0.949
TCGGTAGAAC	1.01
CAGCGGCTAC	2.72
CGTGCGGTGC	1.25
TCAAGCTTAG	0.984
TAGAGCAGA	1.03
AACAGGAGAT	0.987
TTAGGTGAAG	1.04
AGTTCACTAC	1.03
ATAACACTAA	0.977
ATGCTTCCTG	1.06
CAACATGTAC	1.23
GCTAGTACCT	1.17
ATGCGCGGCG	1.04
TACACCTCGA	1.02
CAATACATGT	1.02
GATATTTTG	0.955
GACGTCCACC	1.44
AGTTCCGCAC	5.05
GGTGAGGGCG	0.982

Sequence	switch fluorescence ratio
TAGCGGTCTT	0.952
ATCTTGCACG	1.03
TGACCCCAGC	1.35
GGAATTGGCC	1.02
CTGGGAGTTG	1
ACGAGCCACA	1.09
GCGGGGGCTG	1.05
AACCGATTAA	1.01
ATTATCCGA	0.997
TTTACAAACA	1.08
CAGACAAAGA	1.02
CCCCTGTGGT	1.19
GCACCTAATA	1.05
TGGCGCAGGT	1.03
GTGCTCACTT	1.01
GGAGTGGGA	0.976
GGCCTATGGA	1.03
AGCCAGTGGG	1.08
CTTGCTTTAA	1.04
CACTGGGTT	0.989
TCTCCAACTC	1.61
AAGTATGGCA	1.03
TACAAGGTAT	0.979

Sequence	switch fluorescence ratio
TTGTAGGGCT	0.966
GCAGATTCCA	0.989
CTTATATACG	0.99
AGCAAGCAAA	1.16
CGGTACAAGA	1.03
TACGGGAGGT	1.03
AAGACCACAG	1.17
TGCGGCGCGG	1.02
TTCCACAGAC	1.77
TTAGGAAGCC	1.03
ATGAAGAACC	0.991
TAAGCACATC	1.44
AAGAATTGGA	0.994
ATTTTGCCAA	1.01
ACGTCTATCG	1.02
CGACTATTTA	0.987
GCAGGCTAAG	0.972
ACTTTTCTAG	1.04
ATCGCGGCTA	1.01
TATTTAAACA	1.05
GCCGGAGGGT	1.04
TATGCTTCAG	0.969
CTTATTGGTC	0.999

Sequence	switch fluorescence ratio
CGAATCTGG	0.956
TTTTATATTG	0.995
TGCGTGACGT	0.964
AGGGAGGGTC	1.01
CACGGCACA	1.32
GATGGAGGCA	1.04
AGGACATAAT	1.01
ATTCGCTTG	0.994
GGTGGCTGG	0.988
ATAATACTTT	1.04
GATGGCTGAA	1.02
ACTGGGCCCA	1.06
CTTTGCGCTA	1.14
CGGTATGG	0.985
TGGAGTCGAA	1
ACGCGACTCT	1.23
GAGGTCCGAT	1.02
TGGGATCGTA	0.99
CATGAACGTA	1.08
TCGTTTGATC	1.01
GCTCAGGCAA	1.2
GAAGTCGCCC	1.02
ATTGAAACTT	1.02

Sequence	switch fluorescence ratio
ACTGGTAGTG	1.01
CGTTTAGCC	0.99
CTTTACCGTT	0.999
GGTACCGCGA	2.41
GGTACAAGTG	0.938
CCCAGGAGCA	1.61
AACCCCCGTC	1.08
ATACTTTCAG	1
AATGCTGTAC	1.48
ACTGTTACTG	1.38
AGCCTGATGC	0.999
CAAGCGCAGT	1.18
CATTTATCAC	0.984
TTAACCTTGG	1.01
GACAAAATC	1.18
GATAATGTAT	0.999
TATTATGCCT	1.04
CGCGATCCCG	1.08
CTTAGGACAA	1.01
ATCGTAAATG	0.995
CTTATGGCTG	0.953
ACAAAACAGA	0.992
AGCGACCT	1.36

Sequence	switch fluorescence ratio
CCATCCTACA	1.08
CGGAACTTAA	1.01
GCTTTAGGCA	0.983
CAGACAGGGC	1.06
GGGGAGTACC	0.989
GCTTCAATAA	1.05
ATAGGAGGT	1.02
ACAAGGTCCC	1.01
TTCATATCTT	1.02
ACTTTTCGCT	1.02
TGGATATTGG	0.989
CTTCCACTT	1.07
AAGAATCGGT	1.02
GTTGCGTTAG	0.982
AGGTCTCT	1
CGAGGGTAG	1.03
CTTCCTAGGG	1.18
TGCTAAGGCT	1.01
AACCTTTGTG	0.976
AACCCTATGG	1.01

— the supplement of paper PMC10126150
